# Laboratory results as given in PubChem BioAssay AID686970 (National Center for Advancing Translational Sciences (NCATS), 2013).
# Hit rate of the full screen: of about 360,000 compounds, about 6,000 (1.7%) were called active. The shares of active, inactive and inconclusive entries below differ from those in the screen. The call rests on the fitted dose curve; in most records, active means well fitted cell-killing curve with a large enough effect; inconclusive means small, poorly fitted or top-dose-only effect, or effect the other way; inactive means flat fitted curve, though single readings scatter. No potency is given beside an inconclusive call; the fits are too rough.
# Experiment: qHTS for induction of synthetic lethality in tumor cells producing 2HG: qHTS for the HT-1080-NT fibrosarcoma cell line;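 further: NT is the 2HG producing partner of a matched IDH1 knockdown line; nearly all actives have a fitted effect of over 55% in size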;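 on activity, negative = less viability: 0% = DMSO-treated cells and -100% = media-only wells without cells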
# Conditions: HT-1080-NT fibrosarcoma viability, CellTiter-Glo ATP luminescence, 48 h; activity, negative = less viability: at 46.1 µM (top of the series) unless noted
# Outline: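 Read-out is CellTiter-Glo luminescence after 10 minutes at room temperature, following 48 hours' compound treatment of HT-1080-NT cells (750 cells/well, RPMI, 5% FBS, 37 degrees C).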
# Potency means the concentration at half of the fitted maximal effect; tags describe the fitted curve by direction and shape.
SMILES,Potency,"activity, negative = less viability"
CCn1c(SCC(=O)Nc2nc3ccccc3s2)nc2c(c1=O)SC(C)C2 (stereo unspecified),"inconclusive [cytotoxic, partial curve]",
CCOc1ccc2nc(NC(=O)c3ccc(OCC4CCCO4)cc3)sc2c1 (stereo unspecified),"inconclusive [cytotoxic, single point]",
O=C(CSc1nnc(COc2cccc3cccnc23)o1)N1CCc2ccccc21,active: 2.24 µM,
O[C@H]1C[C@H](c2ccccc2)N(Cc2cccs2)C[C@@H]1n1cc(-c2ccc(F)cc2)nn1,active: 23.1 µM,
CCOc1ccc2nc(NC(=O)CSc3nnnn3C3CCCCC3)sc2c1,,inconclusive: -32.4% [cytotoxic]
CCOC(=O)[C@]12CCCC=C1N(Cc1ccc(Cl)cc1Cl)C(=O)[C@H](CC(=O)NCCc1ccccc1OC)C2,"inconclusive [cytotoxic, single point]",
Nc1cccc(OCCCCCOc2cccc(N)c2)c1,"inconclusive [cytotoxic, full curve]",
O=C(Nc1nccs1)C1CC=CCC1C(=O)OCC(F)(F)C(F)F (stereo unspecified),,inactive: 6.25%
COc1ccc(-n2ccnc(SCC(=O)NCc3ccccc3Cl)c2=O)cc1,,inactive: -1.54%
CCOC(=O)CN1C(=O)CSc2ccc(S(=O)(=O)N3CCCC3)cc21,,inactive: 23.7%
Cc1cc(Cl)c(OCCOCCN2CCCC(C)C2)c(Br)c1 (stereo unspecified),active: 18.4 µM,
C#CCN(C[C@@H]1[C@@H](OC(=O)Nc2cccs2)[C@@H](OC(=O)Nc2cccs2)Cn2c(=O)n(CCCCCC)c(=O)n21)S(=O)(=O)c1ccc(C)cc1,,inactive: -2.47%
O=C1CCCC2=C1C(c1ccc(Cl)cc1)C1C(=O)c3ccccc3C1=N2 (stereo unspecified),"inconclusive [cytotoxic, single point]",
CC(O)(c1cccc(F)c1)c1nc(-c2cccc(F)c2)cs1 (stereo unspecified),"inconclusive [cytotoxic, single point]",
CS(=O)(=O)N1Cc2cc(C(=O)NCC3CC3)nc(-c3cccc(-c4cccnc4)c3)c2[C@@H]1CCO,"inconclusive [cytotoxic, single point]",
Cc1cccc2nc(COc3ccc4ccccc4c3Br)cn12,,inactive: -17.8%
C=CCN(c1ccc(C(=O)Nc2ccc(C)cc2)cc1)S(C)(=O)=O,,inactive: 4.59%
CCCOc1ccc(/C(O)=C2/C(=O)C(=O)N(CCCn3ccnc3)C2c2ccc(C)o2)cc1 (stereo unspecified),,inactive: 10.8%
C[C@H](NC(=O)c1[nH]cnc1C(=O)Nc1ccc(Cl)cc1)c1ccccc1,"inconclusive [cytotoxic, single point]",
CCC1=NN(C(=O)c2ccc(Cl)cc2)C(O)(c2ccc(C)cc2)C1 (stereo unspecified),"inconclusive [cytotoxic, single point]",
Cc1noc(C)c1COc1ccccc1C(=O)N(C)Cc1ccc(F)cc1,,inactive: 5.07%
CC(=O)Oc1ccccc1C(=O)C=Cc1cccc([N+](=O)[O-])c1,"inconclusive [cytotoxic, single point]",
Cc1cccc(CN2CCC(C(=O)Nc3cccc(-c4cccc(F)c4)c3)CC2)n1,"inconclusive [cytotoxic, single point]",
CC(C)Nc1nc(NCCOc2ccccc2Cl)c2sccc2n1,"inconclusive [cytotoxic, single point]",

SMILES,Potency,"activity, negative = less viability"
CC1(Cc2ccc(Cl)cc2)C(=O)Nc2c(Cl)cccc21 (stereo unspecified),"inconclusive [rising, full curve]",
CC1=C(C(=O)OCc2ccc3c(c2)OCO3)C(c2ccccc2OCc2ccccc2)NC(=O)N1 (stereo unspecified),"inconclusive [cytotoxic, single point]",
O=C(Nc1ccc(S(=O)(=O)N2CCOCC2)cc1)c1ccccc1F,,inactive: -14%
O=C(Nc1ccccc1)Nc1nnc([C@H]2C[C@H](O)[C@@H](CO)O2)s1,,inactive: 20.7%
N#CC(C#N)c1ccnc2ccccc12,,inactive: -2.66%
COc1ccc(/C=N/NC(=O)COc2ccc(Cl)cc2Cl)cc1Cn1nc(C)cc1C,"inconclusive [cytotoxic, single point]",
CCCN1CCC(NCc2cn(C)nc2-c2ccc(Oc3ccccc3)cc2)CC1,"inconclusive [cytotoxic, partial curve]",
CN(CC1CCCO1)S(=O)(=O)c1ccc(C(=O)Nc2ccc([N+](=O)[O-])cc2)cc1 (stereo unspecified),"inconclusive [cytotoxic, single point]",
COC(=O)[C@@]12C[C@@H](CC(=O)NCCc3ccccc3OC)C(=O)N(Cc3ccco3)C1=CCC(C)(C)C2,"inconclusive [cytotoxic, single point]",
CCOc1cc(/C=N/NC(=O)C(=O)NCCCOC(C)C)cc(Br)c1O,,inactive: 1.42%
COc1ccc(NC(=O)CCc2nc3ccccc3c(=O)[nH]2)cc1S(=O)(=O)N1CCCCC1,,inactive: -16.5%
CN(C(=O)CSc1nc2cc([N+](=O)[O-])ccc2n1-c1ccc(F)cc1)C1CCS(=O)(=O)C1 (stereo unspecified),"inconclusive [cytotoxic, single point]",
C=CC[C@@H](CC(=O)NCCO)C(=O)NCCOC(=O)[C@@H](CC=C)Cc1ccc(F)cc1,,inactive: -1.36%
O=C(OCc1cn([C@@H]2CN(CC3CCCCC3)[C@@H](c3ccccc3)C[C@H]2O)nn1)c1ccccc1,,inactive: -2.95%
CCc1c(C(=O)NNC(=S)NCc2ccccc2)csc1C,"inconclusive [cytotoxic, single point]",
O=C(NCC(c1cccs1)N1CCOCC1)c1ccccc1NS(=O)(=O)c1ccc(Cl)cc1 (stereo unspecified),"inconclusive [cytotoxic, single point]",
Cc1ccc(S(=O)(=O)N(C)C[C@@H]2Oc3ncc(C#CCC(C)C)cc3C(=O)N([C@H](C)CO)C[C@H]2C)cc1,,inactive: -24%
COc1ccc(/C=N/Nc2cc(C)nc3ccccc23)cc1,active: 18.4 µM,
Cc1ccc(/C=C2\CC(C)CC3=C2NC(=S)NC3c2ccc(C)cc2)cc1 (stereo unspecified),"inconclusive [cytotoxic, single point]",
COc1ccc([N+](=O)[O-])cc1NCc1cccc([N+](=O)[O-])c1,"inconclusive [cytotoxic, single point]",
CC(=O)C1C(=O)c2c(cccc2[N+](=O)[O-])C1=Nc1ccc(S(N)(=O)=O)cc1 (stereo unspecified),,inactive: -2.05%
CS(=O)(=O)N(CCc1ccccc1)CC(=O)N1CCN(c2ccccc2)CC1,,inactive: -8.87%
CN(C)c1ccc(Sc2ccc3nc(N)nc(N)c3c2)cc1,active: 2.31 µM,
C/C(=N\NC(=O)c1ccc(Br)o1)c1cc2c(cc1NC(=O)CCC(=O)O)OCO2,,inactive: 0.0773%

SMILES,Potency,"activity, negative = less viability"
O=C(CCc1nc(-c2ccccc2F)no1)Nc1ccc(Oc2ccccc2)cc1,active: 14.6 µM,
Cc1cc(NC(=O)c2ccc3c(c2)OCO3)ccc1NC(=O)c1ccco1,"inconclusive [cytotoxic, partial curve]",
COc1ccccc1NC(=O)Cn1nnc(C(=O)NCc2ccc3c(c2)OCO3)c1N,"inconclusive [cytotoxic, single point]",
CN1C2CCC1CC(OC(=O)c1c[nH]c3ccccc13)C2 (stereo unspecified),"inconclusive [cytotoxic, partial curve]",
Cc1nn(Cc2ccccc2Cl)c(C)c1NC(=O)NC12CC3CC(CC(C3)C1)C2,"inconclusive [cytotoxic, single point]",
CCOC(=O)C1=CN(Cc2cccc(F)c2)S(=O)(=O)NC1CCc1ccccc1 (stereo unspecified),"inconclusive [cytotoxic, single point]",
COc1ccc(CNS(=O)(=O)c2c(C)[nH]c(C)c2C(=O)N2CCCC2)cc1,"inconclusive [rising, partial curve]",
Cc1ccc(C(=O)CSc2nnc(-c3cccnc3)n2N)cc1,"inconclusive [cytotoxic, single point]",
O=C(Nc1ccc2c(c1)OCO2)c1cc(-c2ccccc2Cl)on1,"inconclusive [cytotoxic, full curve]",
Cc1cc(NO)nc(-c2ccc(Br)cc2)n1,active: 10 µM,
Cc1ccc(OCC(O)CN2CCC(Cc3ccccc3)CC2)c(C)c1 (stereo unspecified),"inconclusive [cytotoxic, single point]",
O=C(N[C@H](Cc1ccc(Cl)cc1)C(=O)O)OCC1c2ccccc2-c2ccccc21,"inconclusive [cytotoxic, single point]",
COc1ccc(C)cc1Nc1n[n+](-c2ccccc2)c(-c2ccc(SC)cc2)s1,"inconclusive [cytotoxic, single point]",
O=C(c1ccco1)N1CCN(c2nc3ccsc3c(=O)s2)CC1,,inactive: -0.02%
CC(C)c1ccc(NC(=O)Nc2nc(C(N)C(C)C)cs2)cc1 (stereo unspecified),active: 20.6 µM,
Cc1cc(C)nc(Nc2n[nH]c(COc3ccccc3)n2)n1,,inactive: 28.8%
CN(C)c1ccc(C(=O)/C=C/c2cccnc2)cc1,"inconclusive [cytotoxic, single point]",
CCOc1ccc(Nc2nc(N)c3ccccc3n2)cc1,active: 20.6 µM,
COc1ccc(CN2C(=O)C(CC(=O)NC3CCCCC3)CC(C(=O)N3CCOCC3)=C2C)cc1 (stereo unspecified),,inactive: 11.3%
O=c1c(Cl)c(Cl)cnn1Cc1ccc(F)cc1,"inconclusive [cytotoxic, single point]",
CCCc1cc(C(N)=O)c(NC(=O)c2ccoc2C)s1,"inconclusive [cytotoxic, single point]",
CCOC(=O)c1ccccc1NC(=O)COC(=O)CSC(C)C(=O)Nc1cc(C)on1 (stereo unspecified),,inactive: 8.06%
CC(C)NCC(O)Cn1c2c(c3ccccc31)CCc1c-2cnn1-c1ccccc1 (stereo unspecified),"inconclusive [cytotoxic, single point]",
